Where two headings read alike, the source gives them in different places.
Target: human cannabinoid CB1 receptor (Homo sapiens, UniProt P21554)
Test: biochemical
Format: binding
[1] = cloned human CB1 receptor expressed in CHO cells, read-out: Affinity to CB1 (converted)

Chain of UniProt P21554 (P21554 whole entry): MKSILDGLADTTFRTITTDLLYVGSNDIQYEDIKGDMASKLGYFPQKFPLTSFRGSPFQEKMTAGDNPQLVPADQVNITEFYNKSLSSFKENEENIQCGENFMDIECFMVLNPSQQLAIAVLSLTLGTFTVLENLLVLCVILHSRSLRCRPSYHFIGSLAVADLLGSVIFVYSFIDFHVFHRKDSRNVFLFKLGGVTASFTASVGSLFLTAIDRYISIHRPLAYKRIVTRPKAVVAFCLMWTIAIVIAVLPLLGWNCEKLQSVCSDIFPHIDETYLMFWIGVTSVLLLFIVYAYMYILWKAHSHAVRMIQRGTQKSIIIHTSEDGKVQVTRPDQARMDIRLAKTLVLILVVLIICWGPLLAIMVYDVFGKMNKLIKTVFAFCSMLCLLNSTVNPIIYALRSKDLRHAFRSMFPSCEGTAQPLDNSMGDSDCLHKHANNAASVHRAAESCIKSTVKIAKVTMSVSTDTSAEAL

Row | Structure (SMILES) | Ki [1] [nM] | Ki (Affinity to CB1) [nM]
1 | CCNCCN/C(=N\S(=O)(=O)c1ccc(Cl)cc1)N1CC(c2ccccc2)C(c2ccc(Cl)cc2)=N1 (centres unmarked) [4-Chloro-N-[[3-(4-chloro-phenyl)-4-phenyl-4,5-dihydro-pyrazol-1-yl]-(2-ethylamino-ethylamino)-methylene]-Benzenesulfonamide] | 7.94 | 
2 | CC(C)(CO)CN/C(=N\S(=O)(=O)c1ccc(Cl)cc1)N1CC(c2ccccc2)C(c2ccc(Cl)cc2)=N1 (centres unmarked) [4-Chloro-N-[[3-(4-chloro-phenyl)-4-phenyl-4,5-dihydro-pyrazol-1-yl]-(3-hydroxy-2,2-dimethyl-propylamino)-methylene]-benzenesulfonamide] | 200 | 
3 | O=S(=O)(N=C(NCCCCN1CCCC1)N1CC(c2ccccc2)C(c2ccc(Cl)cc2)=N1)c1ccc(Cl)cc1 (centres unmarked) [4-Chloro-N-[[3-(4-chloro-phenyl)-4-phenyl-4,5-dihydro-pyrazol-1-yl]-(4-pyrrolidin-1-yl-butylamino)-methylene]-benzenesulfonamide] | 39.8 | 
4 | CON(C)C(=NS(=O)(=O)c1ccc(Cl)cc1)N1CC(c2ccccc2)C(c2ccc(Cl)cc2)=N1 (centres unmarked) [4-Chloro-N-[[3-(4-chloro-phenyl)-4-phenyl-4,5-dihydro-pyrazol-1-yl]-(methoxy-methyl-amino)-methylene]-benzenesulfonamide] | 200 | 
5 | O=S(=O)(N=C(NC1CCNCC1)N1CC(c2ccccc2)C(c2ccc(Cl)cc2)=N1)c1ccc(Cl)cc1 (centres unmarked) [4-Chloro-N-[[3-(4-chloro-phenyl)-4-phenyl-4,5-dihydro-pyrazol-1-yl]-(piperidin-4-ylamino)-methylene]-benzenesulfonamide] | 6.31 | 
6 | CON/C(=N\S(=O)(=O)c1ccc(Cl)cc1)N1C[C@H](c2cccc(F)c2)C(c2ccc(Cl)cc2)=N1 [4-Chloro-N-{[3-(4-chloro-phenyl)-4-(3-fluoro-phenyl)-4,5-dihydro-pyrazol-1-yl]-methoxyamino-methylene}-benzenesulfonamide] | 20 | 
7 | CN1CCCC1CN/C(=N\S(=O)(=O)c1ccc(Cl)cc1)N1CC(c2ccccc2)C(c2ccc(Cl)cc2)=N1 (centres unmarked) [4-Chloro-N-{[3-(4-chloro-phenyl)-4-phenyl-4,5-dihydro-pyrazol-1-yl]-[(1-methyl-pyrrolidin-2-ylmethyl)-amino]-methylene}-benzenesulfonamide] | 5.01 | 
8 | CN1CCC(CNC(=NS(=O)(=O)c2ccc(Cl)cc2)N2CC(c3ccccc3)C(c3ccc(Cl)cc3)=N2)C1 (centres unmarked) [4-Chloro-N-{[3-(4-chloro-phenyl)-4-phenyl-4,5-dihydro-pyrazol-1-yl]-[(1-methyl-pyrrolidin-3-ylmethyl)-amino]-methylene]-benzenesulfonamide] | 1 | 
9 | O=S(=O)(N=C(NCc1cccnc1)N1CC(c2ccccc2)C(c2ccc(Cl)cc2)=N1)c1ccc(Cl)cc1 (centres unmarked) [4-Chloro-N-{[3-(4-chloro-phenyl)-4-phenyl-4,5-dihydro-pyrazol-1-yl]-[(pyridin-3-ylmethyl)-amino]-methylene}-benzenesulfonamide] | 398 | 
10 | N#Cc1cc(-c2ccc(Br)cc2)n(-c2ccc(Cl)cc2Cl)n1 [5-(4-Bromo-phenyl)-1-(2,4-dichloro-phenyl)-1H-pyrazole-3-carbonitrile] | 501 | 
11 | Cc1c(C=C(c2cc(F)cc(F)c2)S(C)(=O)=O)nn(-c2ccc(Cl)cc2Cl)c1-c1ccc(Br)cc1 [5-(4-Bromo-phenyl)-1-(2,4-dichloro-phenyl)-3-(2-(3,5-difluoro-phenyl)-2-methanesulfonyl-vinyl]-4-methyl-1H-pyrazole] | 50.1 | 
12 | O=C(NN1CCCCC1)C1=NN(c2ccc(Cl)cc2Cl)C(c2ccc(Cl)cc2)C1 (centres unmarked) [5-(4-Chloro-phenyl)-1-(2,4-dichloro-phenyl)-4,5-dihydro-1H-pyrazole-3-carboxylic acid piperidine-1-ylamide] | 39.8 | 
13 | O=C(NN1CCCCC1)c1nc(-c2ccc(Cl)cc2Cl)c(-c2ccc(Cl)cc2)s1 [5-(4-Chloro-phenyl)-4-(2,4-dichloro-phenyl)-thiazole-2-carboxylic acid piperidin-1-ylamide] | 200 | 
14 | Cn1c(C(=O)NN2CCCCC2)nc(-c2cc(Cl)ccc2Cl)c1-c1ccc(Cl)cc1 [5-(4-Chloro-phenyl)-4-(2,5-dichloro-phenyl)-1-methyl 1H-imidazole-2-carboxylic acid piperidin-1-ylamide] | 200 | 
15 | CN1CCCCC1Cn1cc(C(=O)c2cc([N+](=O)[O-])ccc2I)c2ccccc21 (centres unmarked) [AM-1241, (2-Iodo-5-nitro-phenyl)-[1-(1-methyl-piperidin-2-ylmethyl)-1H-indol-3-yl]-methanone, reference compound] |  | 251
16 | CN/C(=N\S(=O)(=O)N1CCCCCC1)N1CC(c2ccccc2)C(c2ccc(Cl)cc2)=N1 (centres unmarked) [Azepane-1-sulfonic acid [3-(4-chloro-phenyl)-4-phenyl-4,5-dihydro-pyrazol-1-yl]-methylamino-methyleneamide] | 50.1 | 
17 | CCCCCCC(C)(C)c1cc(O)c2c(c1)OC(C)(C)[C@@H]1CC=C(CO)CC21 (some centres unmarked) [HU-210, 3-(1,1-Dimethyl-heptyl)-9-hydroxymethyl-6,6-dimethyl-6a,7,10,10a-tetra hydro-6H-enzo[c]chromen-1-ol, reference compound] |  | 50.1
18 | CNC(=NS(=O)(=O)N1CCOCC1)C1=NN(c2ccc(Cl)cc2Cl)C(c2ccccc2)C1 (centres unmarked) [Morpholine-4-sulfonic acid [1-(2,4-dichloro-phenyl)-5-phenyl-4,5-dihydro-1H-pyrazol-3-yl]-methylamino-methyleneamide] | 126 | 

Row | Structure (SMILES) | Ki [1] [nM] | Ki (Affinity to CB1) [nM]
19 | CCN(CC)S(=O)(=O)N=C(NC)N1CC(O)(c2ccccc2)C(c2ccc(Cl)cc2)=N1 (centres unmarked) [N,N-Diethylamino-1-sulfonic acid [3-(4-chloro-phenyl)-4-hydroxy-4-phenyl-4,5-dihydro-pyrazol-1-yl]-methylamino-methyleneamide] | 39.8 | 
20 | CCN(CC)S(=O)(=O)N=C(SC)N1CC(c2ccccc2)C(c2ccc(Cl)cc2)=N1 (centres unmarked) [N,N-Diethylamino-1-sulfonic acid [3-(4-chloro-phenyl)-4-phenyl-4,5-dihydro-pyrazol-1-yl]-methylsulfanyl-methyleneamide] | 79.4 | 
21 | CN(C)S(=O)(=O)N=C(NCCF)N1CC(c2ccccc2)C(c2ccc(Cl)cc2)=N1 (centres unmarked) [N,N-Dimethylamino-1-sulfonic acid [3-(4-chloro-phenyl)-4-phenyl-4,5-dihydro-pyrazol-1-yl]-(2-fluoro-ethylamino)-methyleneamide] | 31.6 | 
22 | CN/C(=N\S(=O)(=O)c1ccc(C(F)(F)F)cc1)N1CC(c2cccnc2)C(c2ccc(Cl)cc2)=N1 (centres unmarked) [N-([3-(4-Chloro-phenyl)-4-pyridin-3-yl-4,5-dihydro-pyrazol-1-yl]-methylamino-methylene}-4-trifluoromethyl-benzenesulfonamide] | 6.31 | 
23 | Cc1c(NC(=O)c2ccccc2)nc(-c2ccc(Cl)cc2Cl)n1-c1ccc(Cl)cc1 [N-[1-(4-Chloro-phenyl)-2-(2,4-dichloro-phenyl)-5-methyl-1H-imidazol-4-yl]-benzamide] | 100 | 
24 | NC(=NS(=O)(=O)c1ccc(Cl)cc1)N1CC(c2ccccc2)C(c2ccc(Cl)cc2)=N1 (centres unmarked) [N-{Amino-[3-(4-chloro-phenyl)-4-phenyl-4,5-dihydro-pyrazol-1-yl]-methylene}-4-chloro-benzenesulfonamide] | 39.8 | 
25 | CN/C(=N\S(=O)(=O)N(C)C)N1CC(c2cccc(F)c2)C(c2ccc(Cl)cc2)=N1 (centres unmarked) [N-{[3-(4-Chloro-phenyl)-4-(3-fluoro-phenyl)-4,5-dihydro-pyrazol-1-yl]-methylamino-methylene}-N,N-dimethyl-sulfonamide] | 3.16 | 
26 | CNC(=NS(=O)(=O)c1ccc(C(F)(F)F)cc1)N1CC(c2ccccc2)C(c2ccc(Cl)cc2)=N1 (centres unmarked) [N-{[3-(4-Chloro-phenyl)-4-phenyl-4,5-dihydro-pyrazol-1-yl]-methylamino-methylene}-4-trifluoromethyl-benzene-sulfonamide] | 3.98 | 
27 | CCCCC/C=C\C/C=C\C/C=C\C/C=C\CCCCOC(CO)CO [Noladineether, reference compound] |  | 126
28 | Cc1c(NC(=O)N2CCCCC2)nn(-c2ccc(Cl)cc2Cl)c1-c1ccc(Cl)cc1 [Piperidine-1-carboxylic acid [5-(4-chloro-phenyl)-1-(2,4-dichloro-phenyl)-4-methyl-1H-pyrazol-3-yl]-amide] | 126 | 
29 | CNC(=NS(=O)(=O)N1CCCCC1)C1=NN(c2ccc(Cl)cc2)C(c2ccccc2)C1 (centres unmarked) [Piperidine-1-sulfonic acid [1-(4-chloro-phenyl)-5-phenyl-4,5-dihydro-1H-pyrazol-3-yl]-methylamino-methyleneamide] | 50.1 | 
30 | CNC(=NS(=O)(=O)N1CCCCC1)N1CC(c2cccc(F)c2)C(c2ccc(Cl)cc2)=N1 (centres unmarked) [Piperidine-1-sulfonic acid [3-(4-chloro-phenyl)-4-(3-fluoro-phenyl)-4,5-dihydro-pyrazol-1-yl]-methylamino-methyleneamide] | 31.6 | 
31 | CN(C)CCNC(=NS(=O)(=O)N1CCCCC1)N1CC(c2ccccc2)C(c2ccc(Cl)cc2)=N1 (centres unmarked) [Piperidine-1-sulfonic acid [3-(4-chloro-phenyl)-4-phenyl-4,5-dihydro-pyrazol-1-yl]-(2-dimethylamino-ethylamino)-methyleneamide] | 2.51 | 
32 | CNC(=NS(=O)(=O)N1CCCCC1)N1C[C@H](c2ccccc2)C(c2ccc(Cl)cc2)=N1 [Piperidine-1-sulfonic acid [3-(4-chloro-phenyl)-4-phenyl-4,5-dihydro-pyrazol-1-yl]-methylamino-methyleneamide] |  | 7.94
33 | CCc1c(C(=O)NN2CCCCC2)nn(-c2ccc(Cl)cc2Cl)c1-c1ccc(Br)cc1 [SR-147778, 5-(4-Bromo-phenyl)-1-(2,4-dichloro-phenyl)-4-ethyl-1H-pyrazole-3-carboxylic acid piperidin-1-ylamide, reference compound] | 12.6 | 
34 | O=S(=O)(N=C(NCCF)N1CC(c2ccccc2)C(c2ccc(Cl)cc2)=N1)c1ccc(Cl)cc1 (centres unmarked) [drawing 45, 4-Chloro-N-[[3-(4-chloro-phenyl)-4-phenyl-4,5-dihydro-pyrazol-1-yl]-(2-fluoro-ethylamino)-methylene]-benzenesulfonamide] | 20 | 
35 | O=S(=O)(N=C(NCCF)N1CC(c2ccccc2)C(c2ccc(Cl)cc2)=N1)c1ccc(Cl)cc1 (centres unmarked) [drawing 46] | 126 | 

From patent US20070254863A1 (priority 2006, published 2007)
